# The supplement of paper PMC12217912
# The list shows a part of the results. The full chains were built here from the parent and the listed change. Inactive controls read about 0.05.
# B1: TEV protease; numbered along this chain (parent)
# chain: MGESLFKGPRDYNPISSSICHLTNESDGHTTSLYGIGFGPFIITNKHLFRRNNGTLVVQSLHGVFKVKDTTTLQQHLVDGRDMIIIRMPKDFPPFPQKLKFREPQREERICLVTTNFQTKSMSSMVSDTSCTFPSGDGIFWKHWIQTKDGQCGSPLVSTRDGFIVGIHSASNFTNTNNYFTSVPKNFMELLTNQEAQQWVSGWRLNADSVLWGGHKVFMVKPEEPFQPVKEATQL
# Variants of: B1
# Assay: raw area under fraction-flipped curve 0-4 h after induction (AUC4h, not background-subtracted), DNA-recorder readout of cleavage of the substrate (dimensionless); higher = more cleavage of the substrate by the protease variant
# Conditions: temperature: 34 °C; time window: 0-4 h after rhamnose induction
# Description: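 In vivo DNA recorder in E. coli TOP10(DE3) ΔrhaA at 34 °C. Each TEVp single-site mutant (parent TEVp 0) is paired with a single-site variant of the 7-mer TEVs (canonical ENLYFQ|S). The substrate sits between flexible linkers in a Bxb1-sfGFP-TEVs-SsrA fusion, so cleavage stabilises Bxb1 and speeds flipping of a recombination array, read by NGS. The value is the raw area under the fraction-flipped curve over 0-4 h after rhamnose induction (AUC4h), with ≥20 reads per time point. It is not background-subtracted; inactive controls average about 0.047.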
# 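Note: Bxb1 expression induced with 0.2% (w/v) L-rhamnose at OD600 near 0.5, cultures sampled hourly, flipped fraction per protease–substrate barcode pair counted by paired-end Illumina sequencing.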
Variant,area with substrate ECLYFQS,area with substrate EDLYFQS,area with substrate EFLYFQS,area with substrate EILYFQS,area with substrate EKLYFQS,area with substrate EMLYFQS,area with substrate ERLYFQS,area with substrate ETLYFQS,area with substrate EVLYFQS,area with substrate EWLYFQS
MGESLFKGPRDYNPISSSICHLTNESDGHTTSLYGIGFGPFIITNKHLFRRNNGTLVVQSLHGVFKVKDTTTLQQHLVDGRDMIIIRMPKDFPPFPQKLKFREPQREERICLWTTNFQTKSMSSMVSDTSCTFPSGDGIFWKHWIQTKDGQCGSPLVSTRDGFIVGIHSASNFTNTNNYFTSVPKNFMELLTNQEAQQWVSGWRLNADSVLWGGHKVFMVKPEEPFQPVKEATQL [V113W],0.0743,0.117,0.118,0.0479,0.112,0.0948,0.0729,0.0873,0.0772,0.0808
MGESLFKGPRDYNPISSSICHLTNESEGHTTSLYGIGFGPFIITNKHLFRRNNGTLVVQSLHGVFKVKDTTTLQQHLVDGRDMIIIRMPKDFPPFPQKLKFREPQREERICLVTTNFQTKSMSSMVSDTSCTFPSGDGIFWKHWIQTKDGQCGSPLVSTRDGFIVGIHSASNFTNTNNYFTSVPKNFMELLTNQEAQQWVSGWRLNADSVLWGGHKVFMVKPEEPFQPVKEATQL [D27E],0.107,–,–,0.117,0.0972,–,0.091,–,0.1,–
MGESLFKGPRDYNPISSSICHLTNESDGHTTSLYGIGFGPFIITNKHLFRRNNGTLVVQSLHGVFKVKDTTTLQQHLVDGRDMIIIRMPKDFPPFPQKLKSREPQREERICLVTTNFQTKSMSSMVSDTSCTFPSGDGIFWKHWIQTKDGQCGSPLVSTRDGFIVGIHSASNFTNTNNYFTSVPKNFMELLTNQEAQQWVSGWRLNADSVLWGGHKVFMVKPEEPFQPVKEATQL [F101S],0.0446,0.0576,–,0.0598,0.0536,0.042,–,0.0416,–,0.0351
MGESLFKGPRDYNPISSSICHLTNESDGHTTSLYGIGFGPFIITNKHLFRRNNGTLVVQSLHGVFKVKDTTTLQQHLVDGRDMIIIRMPKDFPPFPQKLKFREPQREERICLVTTNFQTKSMSSMVSDTSCTFPSGDGIFWKHWIQTKDGQCGSPLVSTRDGFIVGIHSASNFTNTNNYFTSVPKNFMELLTNQEAQQWVSGWRLNADYVLWGGHKVFMVKPEEPFQPVKEATQL [S209Y],0.117,–,–,–,–,–,–,–,–,–
MGESLFKGPRDYNPISSSICHLTNESDGHTTSLYGIGFGPFIITNKHLFRRNNGTLVVQSLHGVFKVKDTTTLQQHLVDGRDMIIIRMPKDFPPFPQKLKFREPQREERICLVTTNFQTKSMSSMVSDTSCTFPSGDGIFWKHWIQTKDGQCGSPLVSTRDGFIVGIHSASNFTNTNNYFTSVPKNFMELLTNQEAQQWVSGWRLNADHVLWGGHKVFMVKPEEPFQPVKEATQL [S209H],0.103,–,–,–,–,–,0.104,0.103,–,–
MGESLFKGPRDYNPISSSICHLTNESDGHTTSLYGIGFGPFIITNKHLFRRNNGTLVVQSLHGVFKVKDTTTLQQHLVDGRDMIIIRMPKDFPPFPQKLKFREPQREERICLVTTNFQQKSMSSMVSDTSCTFPSGDGIFWKHWIQTKDGQCGSPLVSTRDGFIVGIHSASNFTNTNNYFTSVPKNFMELLTNQEAQQWVSGWRLNADSVLWGGHKVFMVKPEEPFQPVKEATQL [T119Q],0.118,–,–,–,0.145,–,–,–,–,0.122
MGESLFKGPRDYNPISSSICHLTNESDGHTTSLYGIGFGPFIITNKHLFRRNNGTLVVQSLHGVFKVKDTTTLQQHLVDGRDMIIIRMPKDFPPFPQKLKFREPQREERICLVTTNFQTKSMSSMVSDTSCTFPSGDGIFWKHWIQTKDGQCGSPLVSTRDGFIVGIHSASNFTNTNNYFTSVPKNFMELLTNQEAQQWVSGWRLNADSVLWGGHKVFMVKPEEPFQSVKEATQL [P228S],0.0637,–,0.107,–,–,0.115,–,0.124,–,–
MGESLFKGPRDYNPISSSICHLTNESDGHTTSLYGIGFGPFIITNKHLFRRNNGTLVVQSLHGVFKVKDTTTLQQHLVDGRDMIIIRMPKDFPPFPQKLKFREPQREERICLVTTNFQTKSMSSMVSDTSCTFPSGDGIFWKHWIQTKDGQCGSPLVSTRDGFIVGIHSASNFTNTNNYFTSVPKNFMELLTNQEAQGWVSGWRLNADSVLWGGHKVFMVKPEEPFQPVKEATQL [Q198G],0.0878,–,0.0948,0.064,–,–,0.104,0.0873,0.0854,0.082
MGESLFKGPRDYNPISSSICHLTNESDGHTTSLYGIGFGPFIITNKHLFRRNNGTLVVQSLHGVFKVKDTTTLQQHLVDGRDMIIIRMPKDFPPFPQKLKFREPQREERICLVTTNFQTKSMSSMVSDTSCTFPSGDGIFWKHWIQTKDGQCGSPLVSTRDGFIVGIHSASNFTNTNNYFKSVPKNFMELLTNQEAQQWVSGWRLNADSVLWGGHKVFMVKPEEPFQPVKEATQL [T181K],0.0576,–,–,0.0286,0.0708,0.0863,–,–,–,0.0497
MGESLFKGPRDYNPISSSICHLTNESDGHTTSLYGIGFGPFIITNKHLFRRNNGTLVVQSLHGVFKVKDTTTLQQHLVDGRDMIIIRMPKDFPPFPQKLKFREPQREERICLVTTNFQTKSMSSMVSDTSCTFPSGDGIFWKHWIQTKDGQCGSPLVSTRDGFIVGIHSASNFTNTNNYSTSVPKNFMELLTNQEAQQWVSGWRLNADSVLWGGHKVFMVKPEEPFQPVKEATQL [F180S],0.085,–,–,0.078,–,–,0.081,–,–,–
MGESLFKGPRDYNPISSSICHLTNESDGHTTSLYGIGFGPFIITNKHLFRRNNGTLVVQSLHGVFKVKDTTTLQQHLVDGRDMIIIRMPKDFPPFPQKLKFREPQREERICLVTTNFQTKSMSSMVSDTSCTFPSGDGIFWKHWIQTKDGQCGSPLVSTRDGFIVGIHSASNFTNQNNYFTSVPKNFMELLTNQEAQQWVSGWRLNADSVLWGGHKVFMVKPEEPFQPVKEATQL [T176Q],0.095,–,–,–,–,–,–,–,–,–

# Same assay, conditions: temperature: 34 °C; time window: 0-4 h after rhamnose induction
Variant,area with substrate EYLYFQS,area with substrate EELYFQS,area with substrate ELLYFQS,area with substrate ESLYFQS,area with substrate EPLYFQS,area with substrate EGLYFQS,area with substrate EHLYFQS,area with substrate EQLYFQS
MGESLFKGPRDYNPISSSICHLTNESDGHTTSLYGIGFGPFIITNKHLFRRNNGTLVVQSLHGVFKVKDTTTLQQHLVDGRDMIIIRMPKDFPPFPQKLKFREPQREERICLWTTNFQTKSMSSMVSDTSCTFPSGDGIFWKHWIQTKDGQCGSPLVSTRDGFIVGIHSASNFTNTNNYFTSVPKNFMELLTNQEAQQWVSGWRLNADSVLWGGHKVFMVKPEEPFQPVKEATQL [V113W],0.0919,–,–,–,–,–,–,–
MGESLFKGPRDYNPISSSICHLTNESEGHTTSLYGIGFGPFIITNKHLFRRNNGTLVVQSLHGVFKVKDTTTLQQHLVDGRDMIIIRMPKDFPPFPQKLKFREPQREERICLVTTNFQTKSMSSMVSDTSCTFPSGDGIFWKHWIQTKDGQCGSPLVSTRDGFIVGIHSASNFTNTNNYFTSVPKNFMELLTNQEAQQWVSGWRLNADSVLWGGHKVFMVKPEEPFQPVKEATQL [D27E],–,0.133,–,–,–,–,–,–
MGESLFKGPRDYNPISSSICHLTNESDGHTTSLYGIGFGPFIITNKHLFRRNNGTLVVQSLHGVFKVKDTTTLQQHLVDGRDMIIIRMPKDFPPFPQKLKSREPQREERICLVTTNFQTKSMSSMVSDTSCTFPSGDGIFWKHWIQTKDGQCGSPLVSTRDGFIVGIHSASNFTNTNNYFTSVPKNFMELLTNQEAQQWVSGWRLNADSVLWGGHKVFMVKPEEPFQPVKEATQL [F101S],–,–,0.0502,0.0662,–,–,–,–
MGESLFKGPRDYNPISSSICHLTNESDGHTTSLYGIGFGPFIITNKHLFRRNNGTLVVQSLHGVFKVKDTTTLQQHLVDGRDMIIIRMPKDFPPFPQKLKFREPQREERICLVTTNFQTKSMSSMVSDTSCTFPSGDGIFWKHWIQTKDGQCGSPLVSTRDGFIVGIHSASNFTNTNNYFTSVPKNFMELLTNQEAQQWVSGWRLNADYVLWGGHKVFMVKPEEPFQPVKEATQL [S209Y],0.17,–,0.0771,0.115,0.168,–,–,–
MGESLFKGPRDYNPISSSICHLTNESDGHTTSLYGIGFGPFIITNKHLFRRNNGTLVVQSLHGVFKVKDTTTLQQHLVDGRDMIIIRMPKDFPPFPQKLKFREPQREERICLVTTNFQTKSMSSMVSDTSCTFPSGDGIFWKHWIQTKDGQCGSPLVSTRDGFIVGIHSASNFTNTNNYFTSVPKNFMELLTNQEAQQWVSGWRLNADHVLWGGHKVFMVKPEEPFQPVKEATQL [S209H],–,0.146,0.117,0.102,–,–,–,–
MGESLFKGPRDYNPISSSICHLTNESDGHTTSLYGIGFGPFIITNKHLFRRNNGTLVVQSLHGVFKVKDTTTLQQHLVDGRDMIIIRMPKDFPPFPQKLKFREPQREERICLVTTNFQQKSMSSMVSDTSCTFPSGDGIFWKHWIQTKDGQCGSPLVSTRDGFIVGIHSASNFTNTNNYFTSVPKNFMELLTNQEAQQWVSGWRLNADSVLWGGHKVFMVKPEEPFQPVKEATQL [T119Q],–,–,–,0.101,–,–,–,–
MGESLFKGPRDYNPISSSICHLTNESDGHTTSLYGIGFGPFIITNKHLFRRNNGTLVVQSLHGVFKVKDTTTLQQHLVDGRDMIIIRMPKDFPPFPQKLKFREPQREERICLVTTNFQTKSMSSMVSDTSCTFPSGDGIFWKHWIQTKDGQCGSPLVSTRDGFIVGIHSASNFTNTNNYFTSVPKNFMELLTNQEAQQWVSGWRLNADSVLWGGHKVFMVKPEEPFQSVKEATQL [P228S],0.112,0.0979,–,0.137,–,0.104,–,–
MGESLFKGPRDYNPISSSICHLTNESDGHTTSLYGIGFGPFIITNKHLFRRNNGTLVVQSLHGVFKVKDTTTLQQHLVDGRDMIIIRMPKDFPPFPQKLKFREPQREERICLVTTNFQTKSMSSMVSDTSCTFPSGDGIFWKHWIQTKDGQCGSPLVSTRDGFIVGIHSASNFTNTNNYFTSVPKNFMELLTNQEAQGWVSGWRLNADSVLWGGHKVFMVKPEEPFQPVKEATQL [Q198G],–,–,–,0.0083,–,0.106,0.101,0.0982
MGESLFKGPRDYNPISSSICHLTNESDGHTTSLYGIGFGPFIITNKHLFRRNNGTLVVQSLHGVFKVKDTTTLQQHLVDGRDMIIIRMPKDFPPFPQKLKFREPQREERICLVTTNFQTKSMSSMVSDTSCTFPSGDGIFWKHWIQTKDGQCGSPLVSTRDGFIVGIHSASNFTNTNNYFKSVPKNFMELLTNQEAQQWVSGWRLNADSVLWGGHKVFMVKPEEPFQPVKEATQL [T181K],–,–,–,0.0589,–,–,–,–
MGESLFKGPRDYNPISSSICHLTNESDGHTTSLYGIGFGPFIITNKHLFRRNNGTLVVQSLHGVFKVKDTTTLQQHLVDGRDMIIIRMPKDFPPFPQKLKFREPQREERICLVTTNFQTKSMSSMVSDTSCTFPSGDGIFWKHWIQTKDGQCGSPLVSTRDGFIVGIHSASNFTNTNNYSTSVPKNFMELLTNQEAQQWVSGWRLNADSVLWGGHKVFMVKPEEPFQPVKEATQL [F180S],0.0588,–,–,0.0856,–,–,–,0.0659
MGESLFKGPRDYNPISSSICHLTNESDGHTTSLYGIGFGPFIITNKHLFRRNNGTLVVQSLHGVFKVKDTTTLQQHLVDGRDMIIIRMPKDFPPFPQKLKFREPQREERICLVTTNFQTKSMSSMVSDTSCTFPSGDGIFWKHWIQTKDGQCGSPLVSTRDGFIVGIHSASNFTNQNNYFTSVPKNFMELLTNQEAQQWVSGWRLNADSVLWGGHKVFMVKPEEPFQPVKEATQL [T176Q],–,0.0916,–,–,–,–,0.0631,0.0858
